Variants at the floor of the assay are shown more often than the library holds them.
B1: TPR 5TU (parent)
chain: GGAUCUUCUCGAUCUAACAAAAAAGACAAAUCUGCCACAAAGCUUGAGAGCAUCUUCGGAUGCAGAGGCGGCAGCCUUCGGUGGCGCGAUAGCGCCAACGUUCUCAACUAUGACACGCAAAACGCGUGCUCCGUUGAAUGGAGUUUAUCAUG

Variants of: B1
Test: polymerase ribozyme fitness, log enrichment relative to wild type (log ratio); higher = more active; in vitro selection for triplet polymerase activity
Summary of the method: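 To select mutant libraries of each subunit of a heterodimeric triplet polymerase ribozyme, built by PCR and transcribed, each was annealed with a biotinylated primer, partner subunit and triplets, then incubated frozen at −7 °C. Extended constructs were gel-excised, captured on streptavidin beads and amplified by RT-PCR, in one round carried out in triplicate. Illumina sequencing of input and output libraries kept genotypes with ≥10 input reads and ≥1 read per output. Fitness is the base-2 logarithm of genotype enrichment relative to wild-type enrichment, from inverse-variance-weighted replicate averages.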

Point of comparison: A64G C99A, “polymerase ribozyme fitness (log ratio)” value -3.82. Against it:
- C63A G80A C85G C96G A110G — lower, ≤ -4.2
- G65C C85U G126U — lower, ≤ -4.2
- C63U C87G — lower, -4.05
- C63G C95A A110G A122U — higher, -3.22
- G62C G92A — lower, ≤ -4.2
- A64C A107C C131A — lower, ≤ -4.2
- G62C G143U — higher, -3.58
- G62U U109C C116U C131U A147U — higher, -1.94
- G65C C76G C96G U145G — lower, ≤ -4.2
- G65U A91G U104A C105U — lower, ≤ -4.2
- G65A C76U G83C — lower, ≤ -4.2
- G62C G80C G86C C87U — lower, ≤ -4.2
- A64U C76G C93U — lower, ≤ -4.2
- A64U G83A G86U C87A A97G — lower, ≤ -4.2
- C63U C69A G80A C85U G94C C99A — higher, -3.32
- A64C C72U U101A C105A A110U G128U G133A — lower, ≤ -4.2
- G62C C76U U139G — higher, -3.09
- G65A A91G C108A — lower, ≤ -4.2
- A64C G83C — lower, ≤ -4.2
- A64G G92U C116G C118A A142C C149A — lower, ≤ -4.2
- A64U A66C G70C G83A C95U — lower, ≤ -4.2
- A64G C93G — lower, -4.05
- G65C U90G A91G — lower, ≤ -4.2
- G65A G68U C93U — lower, ≤ -4.2
- G65A C85A C96G A110G — lower, ≤ -4.2
- C63U G81C U82C U102G U104A C108A A150C — lower, ≤ -4.2
- A64G G86U A107G C116G G143C — lower, ≤ -4.2
- C63U C69U G80A C108G A142C — lower, ≤ -4.2
- A64G G68C A142G G143A — lower, ≤ -4.2
- G65C C75G U78C U82C G86A G94A A98U C118A A121C — lower, ≤ -4.2
- G65A G70A U78C C93U G117U U146C — lower, ≤ -4.2
- G65C C87G C103G C129U U135G — lower, ≤ -4.2
- C63G C85U A115U C116A C149U — lower, ≤ -4.2
- A64C G140A — lower, ≤ -4.2
- G65C G67C G92U G140A U145A — lower, ≤ -4.2
- G62U A73U G84U A91U U135A G141C — lower, ≤ -4.2
- A64G A91C A115G U145C — within 0.2 log units, -3.96
- A64G G84U U151A — lower, ≤ -4.2
- G62C G81A A91U A113U C125U — lower, ≤ -4.2
- C63U C99G U151A — lower, ≤ -4.2
- C63U A64G G70C G84A — lower, ≤ -4.2
- C63A C85G C95U C118U — higher, -2.65
- A64C C87G C99A G141U — lower, ≤ -4.2
- A64C C87U C96U C99G — lower, ≤ -4.2
- G65U A91U C125A U134G — lower, ≤ -4.2
- A64C G80U A89C C95A C149G — lower, ≤ -4.2
- C63G U90G G94A — within 0.2 log units, -3.97
- C63U C87G U146G C149A — lower, ≤ -4.2
- A64C G133C — lower, ≤ -4.2
- A64C G67A C93U G94C U145G — lower, ≤ -4.2
- A64G G70A G84A G100C G140U — lower, ≤ -4.2
- A64C G68A C87A — lower, ≤ -4.2
- G65C G84C C95U C116U G141A — lower, ≤ -4.2
- G62C G80U C93A A122G — lower, ≤ -4.2
- C63G G81U G92A G117C C118U G143U — lower, ≤ -4.2
- G62C G68C G86C C87A A89G — lower, ≤ -4.2
- G62C C95U C99U G126A — lower, ≤ -4.2
- C63U A73U C103G U148A — lower, ≤ -4.2
- G62U C85U U148A — lower, ≤ -4.2
- G65C U77G C85U C116U — lower, ≤ -4.2
- C63G G67C U135G — lower, ≤ -4.2
- C63G C96G G112U — lower, ≤ -4.2
- G65C C87A G92U C95A C118G G143U — lower, ≤ -4.2
- G62C G67C G81A G143A — lower, ≤ -4.2
- C63U G68A — lower, ≤ -4.2
- A64G A91C G133C — lower, ≤ -4.2
- A64C G67C C108G U109G — lower, ≤ -4.2
- G65C A89U A97G — lower, ≤ -4.2
- G62C C123G G128A U145C — lower, ≤ -4.2
- G65A G67C G92A — lower, ≤ -4.2
- G62U G86C C95G C132U — lower, ≤ -4.2
- C63G A107G U134G U144C — lower, ≤ -4.2
- C63U G68A G83C A115C U144C C149A — lower, ≤ -4.2
- A64G C72G C87A U90G G143U C149U — lower, ≤ -4.2
- G62U C76A U78G G81U G143C U144C — lower, ≤ -4.2
- G65C G86C — lower, ≤ -4.2
- G65C U101G U109A — lower, ≤ -4.2
- A64C C76G G124U G140C U144A — lower, ≤ -4.2
- C63G G70A C85A — lower, ≤ -4.2
- A64G C85U A120G U146C — lower, ≤ -4.2
- C63G G86C G94A A98G C99A — lower, ≤ -4.2
- A64G C76A C103G C108U C118G — lower, ≤ -4.2
- G62U G128A — lower, ≤ -4.2

From the RNAGym collection of RNA variant scans (doi:10.1073/pnas.2313332121)
